Inconclusive results, whose numbers are uncertain, are shown with a selection of clear calls. For some assays here: No potency is given beside an inconclusive call; the fits are too rough. Active and inactive are the calls of the source. Unless noted, calls come from the whole dose curve; as a rule, active = well fitted curve in the direction sought with a large enough effect in the repeat runs; inconclusive = weak or mixed curves; inactive = no such curve, though single readings can be large; an effect the other way counts as inactive or inconclusive.
tested on: not listed separately; experiment: qHTS assay to identify small molecule antagonists of the peroxisome proliferator-activated receptor delta (PPARd) signaling pathway - cell viability counter screen (AID 743213); conditions: PPARd-bla HEK293H viability, CellTiter-Glo luminescence, 17 h; viability change, negative = cytotoxic: at 62 µM (top of the series) unless noted; note: nearly all actives have a fitted effect of over 50% in size; note: potency is the fitted concentration of half-maximal effect
Method in brief: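 Viability counter-screen, qHTS format: PPARd-bla HEK293H, L165041 300 nM final, 17 h compound exposure at 37 C, CellTiter-Glo luminescence after 30 min RT.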
% is set by controls: 0 for no effect and ±100 for the full control effect; tags give direction and shape of the fitted curve or compound fluorescence and quenching.

SMILES	Potency	viability change, negative = cytotoxic
CC(COCC(C)OC(=O)c1ccccc1)OC(=O)c1ccccc1 (centres undefined)	inconclusive [cytotoxic, partial curve, poor fit]	–
CCCCN(CCN(CCCC)C(=O)N1CCOCC1)C(=O)N1CCOCC1	inconclusive [cytotoxic, partial curve]	–
Cc1ccc(C(C)C)c(O)c1	inconclusive [cytotoxic, single point]	–
CC(=O)OCC(=O)NCCCOc1cccc(CN2CCCCC2)c1	inconclusive [cytotoxic, single point]	–
C[Si]1(C)O[Si](C)(C)O[Si](C)(C)O[Si](C)(C)O[Si](C)(C)O1	–	inactive: 5.34%
Nc1ccn(C2CO[C@H](CO)O2)c(=O)n1 (some centres undefined)	–	inactive: -5.54%
Cc1ccccc1Br	–	inactive: -1.57%
O=C(O)Cc1ccccc1Nc1c(Cl)cccc1Cl	inconclusive [cytotoxic, single point]	–
CN(N=O)C(=O)N[C@@H]1[C@@H](O)[C@H](O)[C@@H](CO)O[C@@H]1O	inactive	–

molecular target: Peroxisome proliferator-activated receptor delta (Homo sapiens) (UniProt Q03181); experiment: qHTS assay to identify small molecule antagonists of the peroxisome proliferator-activated receptor delta (PPARd) signaling pathway (AID 743215; active = well fitted inhibition curve with a large enough effect in the signal ratio in the repeat runs, not every such curve was filed as active; inconclusive = weak or mixed curves, or effect the other way; inactive = no such curve, though single readings can be large or run the other way; the % refers to the signal ratio;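 note: cells stimulated with agonist L165041 at 300 nM final during compound exposure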; note: potency is the fitted concentration of half-maximal effect); conditions: HEK293H PPARd-UAS-bla, beta-lactamase FRET ratio, antagonist, 17 h; ratio activity, negative = inhibition: at 62 µM (top of the series) unless noted
Chain of UniProt Q03181 (Q03181 whole entry, looked up): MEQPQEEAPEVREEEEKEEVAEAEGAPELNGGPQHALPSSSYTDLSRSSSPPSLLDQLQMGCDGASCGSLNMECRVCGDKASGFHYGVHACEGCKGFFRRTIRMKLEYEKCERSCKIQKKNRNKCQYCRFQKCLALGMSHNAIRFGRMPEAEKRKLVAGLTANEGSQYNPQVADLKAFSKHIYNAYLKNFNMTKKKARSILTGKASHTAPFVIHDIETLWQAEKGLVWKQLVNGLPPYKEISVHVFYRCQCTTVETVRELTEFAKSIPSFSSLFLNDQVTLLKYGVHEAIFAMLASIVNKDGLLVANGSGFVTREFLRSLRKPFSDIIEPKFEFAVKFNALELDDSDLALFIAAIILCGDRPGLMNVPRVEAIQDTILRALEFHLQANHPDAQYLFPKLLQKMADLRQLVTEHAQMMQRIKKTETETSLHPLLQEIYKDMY
Method in brief: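 Screen format: qHTS, antagonist mode. HEK293H PPARd-bla cells received compound and 300 nM L165041 (final), 17 h, 37 C. Beta-lactamase detected via FRET substrate fluorescence, 2 h, room temperature.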

SMILES	ratio activity, negative = inhibition	Potency
CC(C)(C)NCCNC(C)(C)C	inactive: -3.89%	–
CC(COCC(C)OC(=O)c1ccccc1)OC(=O)c1ccccc1 (centres undefined)	–	inconclusive [fluorescent, single point] and inactive
CCCCN(CCN(CCCC)C(=O)N1CCOCC1)C(=O)N1CCOCC1	–	inconclusive [single point]
CCOC(C)=O	inactive: -2.62% [at 80.4 µM]	–
CCCCCCCC(=O)OC	–	inactive
O=CC(=O)c1ccccc1	inactive: 1.82%	–
CC(C)(C)CC(=O)OCC(=O)[C@@]1(O)CC[C@H]2[C@@H]3CCC4=CC(=O)C=C[C@]4(C)[C@H]3[C@@H](O)C[C@@]21C	inconclusive: 9.05%	–
CCCCC(CC)C(=O)OCCOCCOCCOC(=O)C(CC)CCCC (centres undefined)	inconclusive: -4.97%	–
O=C(O)Cc1ccccc1Nc1c(Cl)cccc1Cl	inactive: -6.48%	–

molecular target: Bile acid receptor (Homo sapiens) (UniProt Q96RI1); experiment: qHTS assay to identify small molecule antagonists of the farnesoid-X-receptor (FXR) signaling pathway (AID 743217; active = well fitted inhibition curve with a large enough effect in the signal ratio in the repeat runs, not every such curve was filed as active; inconclusive = weak or mixed curves, or effect the other way; inactive = no such curve, though single readings can be large or run the other way; the % refers to the signal ratio); conditions: HEK293T FXR-UAS-bla, beta-lactamase ratio, CDCA-stimulated, 16 h; activity change, negative = inhibition: at 62.6 µM (top of the series) unless noted
Chain of UniProt Q96RI1 (Q96RI1 whole entry, looked up): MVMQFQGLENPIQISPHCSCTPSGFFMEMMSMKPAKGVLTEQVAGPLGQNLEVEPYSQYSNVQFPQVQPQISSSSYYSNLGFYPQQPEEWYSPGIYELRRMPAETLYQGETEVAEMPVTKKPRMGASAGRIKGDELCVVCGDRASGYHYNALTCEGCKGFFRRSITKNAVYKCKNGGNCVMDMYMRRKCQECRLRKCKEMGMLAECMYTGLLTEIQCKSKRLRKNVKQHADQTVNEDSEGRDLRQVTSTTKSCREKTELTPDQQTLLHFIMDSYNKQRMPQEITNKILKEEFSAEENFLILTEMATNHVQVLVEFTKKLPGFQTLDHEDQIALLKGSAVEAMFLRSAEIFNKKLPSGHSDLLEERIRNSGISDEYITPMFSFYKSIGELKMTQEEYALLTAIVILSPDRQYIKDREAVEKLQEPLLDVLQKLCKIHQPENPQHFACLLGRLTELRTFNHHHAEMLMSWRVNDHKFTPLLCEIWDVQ
Method in brief: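 Quantitative HTS, beta-lactamase reporter format: FXR-UAS-bla HEK 293T cells co-treated 16 h at 37 °C with compounds and 50 uM final chenodeoxycholic acid, then read by B/G FRET fluorescence.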

SMILES	activity change, negative = inhibition
CC(=O)OCC(=O)NCCCOc1cccc(CN2CCCCC2)c1	inactive: 3.18%
O=C(O)Cn1cnnn1	inactive: 0.0844%
CN(N=O)C(=O)N[C@@H]1[C@@H](O)[C@H](O)[C@@H](CO)O[C@@H]1O	inconclusive: -0.588%

tested on: not listed separately; experiment: qHTS assay to identify small molecule agonists of the farnesoid-X-receptor (FXR) signaling pathway - cell viability counter screen (AID 743218); conditions: FXR-bla HEK293T viability, CellTiter-Glo luminescence, 16 h; viability change, negative = cytotoxic: at 62.6 µM (top of the series) unless noted; note: nearly all actives have a fitted effect of over 45% in size; note: potency is the fitted concentration of half-maximal effect
Method in brief: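 Same-well cytotoxicity check on FXR-UAS-bla HEK 293T cells: 5 h attachment, 16 h compound at 37 C, CellTiter-Glo luminescence read at room temperature after 30 min.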

SMILES	viability change, negative = cytotoxic	Potency
CC(=O)CCCCn1c(=O)c2c(ncn2C)n(C)c1=O	inactive: -13.3%	–
CC(C)(C)NCCNC(C)(C)C	inactive: -5.49%	–
Cc1ccc(C(C)C)c(O)c1	–	inconclusive [cytotoxic, single point] and inactive
O=C(O)Cn1cnnn1	inactive: 6.74%	–
Nc1ccn(C2CO[C@H](CO)O2)c(=O)n1 (some centres undefined)	inactive: -3.47%	–
CCCCC(CC)C(=O)OCCOCCOCCOC(=O)C(CC)CCCC (centres undefined)	–	inconclusive [rising, full curve, poor fit]
Cc1nc2ccccc2s1	inactive: -21.3% [at 81.1 µM]	–
CS(=O)(=O)c1ccc(-c2cn3ccccc3n2)cc1	inactive: -20.9%	–

— PubChem BioAssay (Tox21)
